In PubChem BioAssay AID588342 (National Center for Advancing Translational Sciences (NCATS), 2011):
Out of some 360,000 compounds screened, about 25,000 (6.9%) were called active. The shares of active, inactive and inconclusive entries below differ from those in the screen. Calls come from the whole dose curve; as a rule, active = well fitted inhibition curve with a large enough effect; inconclusive = small, poorly fitted or top-dose-only effect; inactive = flat fitted curve, though single readings scatter. A potency beside an inconclusive call is a rough fit, not a confirmed value.

The molecules below were run against Luciferin 4-monooxygenase (Photinus pyralis) (UniProt P08659) (assay: qHTS profiling assay for firefly luciferase inhibitor/activator using purifed enzyme and Km concentrations of substrates (counterscreen for miR-21 project)). Settings: purified FLuc, luminescence inhibition; series mostly up to 57.5 µM.
Summary of the method: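 Purified P. pyralis luciferase, 10 nM final, with Km-level 10 uM D-luciferin and 10 uM ATP in 50 mM Tris acetate pH 7.5, 10 mM Mg acetate, 0.01% Tween-20, 0.05% BSA; 6-point qHTS titration about 60 µM downward; luminescence read.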
Note: nearly all actives have a fitted effect of over 55% in size.
Potency is the fitted concentration of half-maximal effect; tags give direction and shape of the fitted curve.

Chain of UniProt P08659 (P08659 whole entry, looked up): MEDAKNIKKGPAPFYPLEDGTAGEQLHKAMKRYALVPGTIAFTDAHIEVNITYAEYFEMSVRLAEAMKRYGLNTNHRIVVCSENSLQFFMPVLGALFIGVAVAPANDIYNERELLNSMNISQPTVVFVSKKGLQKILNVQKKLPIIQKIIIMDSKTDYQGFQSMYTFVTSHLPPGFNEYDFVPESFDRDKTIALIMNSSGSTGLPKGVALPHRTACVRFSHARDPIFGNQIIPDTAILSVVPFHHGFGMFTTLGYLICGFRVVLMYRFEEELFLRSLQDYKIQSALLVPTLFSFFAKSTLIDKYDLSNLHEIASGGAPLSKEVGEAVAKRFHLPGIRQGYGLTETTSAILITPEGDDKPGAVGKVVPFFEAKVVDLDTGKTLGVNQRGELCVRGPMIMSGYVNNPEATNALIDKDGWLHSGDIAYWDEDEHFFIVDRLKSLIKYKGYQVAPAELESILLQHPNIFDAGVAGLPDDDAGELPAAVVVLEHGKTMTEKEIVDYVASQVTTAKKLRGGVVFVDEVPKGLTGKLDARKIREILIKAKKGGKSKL

| Structure (SMILES) | Potency |
| --- | --- |
| COC(=O)Cc1ccc(NC(=S)NCc2ccccc2Cl)cc1 | inconclusive: 37.9 µM [inhibitor, single point] |
| N#Cc1cccc(-n2nnnc2-c2ccc3c(c2)OCO3)c1 | inconclusive: 21.3 µM [inhibitor, single point] |
| Cc1ccc(OC(F)F)c(NC(=O)Nc2ccc3c(c2)OCO3)c1 | inconclusive: 19 µM [inhibitor, partial curve, poor fit] |
| Cc1ccc(C2C=NN(c3ccccc3)C2=O)cc1 (stereo unspecified) | active: 12 µM |
| O=c1c(F)cn(C2CCCO2)c(=O)n1Cc1ccccc1F (stereo unspecified) | inactive |
| O=C(N/N=C/c1sc(N2CCOCC2)nc1-c1ccccc1)c1ccc(O)cc1 | inconclusive: 19 µM [inhibitor, partial curve] |
| CCc1ccc(C2=NN(C(=O)CCC(=O)O)C(c3cccs3)C2)cc1 (stereo unspecified) | inconclusive: 23.9 µM [inhibitor, partial curve, poor fit] |
| CCCNc1ccc(C(=O)OCC)cc1[N+](=O)[O-] | active: 26.9 µM |
| c1ccc(OCCCc2nc(-c3ccccn3)no2)cc1 | inconclusive: 19 µM [inhibitor, partial curve] |
| NC(=O)c1c(NC(=O)c2cccnc2Cl)sc2c1CCCC2 | active: 19 µM |
| Cc1cccc(-c2ocnc2C(=O)Nc2ccccc2NC(=O)c2ccccn2)c1 | active: 13.5 µM |
| O=C(COC(=O)c1ccccn1)c1cccc(Br)c1 | active: 19 µM |
| O=C(Cc1ccccc1)Nc1ccc2c(c1)OC1(CCCC1)O2 | active: 4.78 µM |
| CCS(=O)(=O)Nc1ccc(C2=NN(C(=S)Nc3ccccc3)C(c3ccco3)C2)cc1 (stereo unspecified) | inconclusive: 30.1 µM [inhibitor, partial curve, poor fit] |
| COc1ccc(Nc2cc(C(=O)NCc3ccccc3OC)c3ccccc3n2)cc1 | active: 10.7 µM |
| CC(CC(=O)NCCc1ccc(S(N)(=O)=O)cc1)c1ccccc1 (stereo unspecified) | inconclusive: 8.49 µM [inhibitor, partial curve, poor fit] |
| O=C(NCc1csc(-c2cccs2)n1)C1CCC1 | inconclusive: 37.9 µM [inhibitor, single point] |
| O=C(Nc1nccs1)c1ccc(Cl)c([N+](=O)[O-])c1 | inconclusive: 19 µM [inhibitor, partial curve] |
| O=C(NCCc1ccccc1)c1cccc(Br)c1 | active: 21.3 µM |
| Cc1ccc(C)c(NC(=O)c2cc(-c3cc(C)cc(C)c3O)n[nH]2)c1 | inconclusive: 10.7 µM [inhibitor, partial curve, poor fit] |
| C/C(=N/NC(=O)c1ccc(Cl)cc1Cl)c1cccnc1 | inconclusive: 26.9 µM [inhibitor, partial curve] |
